Test results taken from the supplement of paper PMC4967469.
A lower IC50 marks a more sensitive line; a fit beyond the top or the lowest dose is shown as a bound at that dose. AUC is the area under the same curve over the 256-fold range up to the top dose, as a fraction; it is 1 without any effect and falls as sensitivity rises. Where the top dose is marked as inferred, it is not printed in the source and was worked back from the curve model. For some assays here: Where an entry number is given, a second screen of the drug exists; the two often differ.

Legend:
Assay in all cases: Viability of human cancer cell lines after 72 h of drug (GDSC screen)
Shikonin = compound: CC(C)=CC[C@@H](O)C1=CC(=O)c2c(O)ccc(O)c2C1=O [Shikonin]; settings: top dose 16 µM; top dose inferred
Description: (§1)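 Human cancer cell lines in 384-well plates, medium with 10% serum, drug for 72 h over a 256-fold dose range (nine 2-fold or five 4-fold steps up to the top dose). Adherent lines were fixed and stained with the nucleic acid dye Syto60, suspension lines read with resazurin; signal relative to control wells, capped at 0 and 100%. One two-parameter sigmoid per drug and line, fitted in a mixed model over all curves with the slope shared within a line.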

CGP-082996 (CINK4) = compound: CCNc1cc(NC2CCC(O)CC2)nc(Nc2ccc3c(ccn3Cc3ccccc3)c2)n1 [CGP-082996 (CINK4)]; settings: top dose 5.12 µM; top dose inferred
Description: as §1

VX-702 = compound: NC(=O)c1ccc(N(C(N)=O)c2c(F)cccc2F)nc1-c1ccc(F)cc1F [VX-702]; settings: top dose 2 µM; top dose inferred
Description: as §1

Olaparib = compound: O=C(c1cc(Cc2n[nH]c(=O)c3ccccc23)ccc1F)N1CCN(C(=O)C2CC2)CC1 [Olaparib]
Description: as §1

XMD8-85 = compound: COc1cc(N2CCN(C)CC2)ccc1Nc1ncc2c(n1)N(C)c1ccccc1C(=O)N2C [XMD8-85]; settings: top dose 8 µM; top dose inferred
Description: as §1

BMS-536924 = compound: Cc1cc(N2CCOCC2)cc2[nH]c(-c3c(NC[C@@H](O)c4cccc(Cl)c4)cc[nH]c3=O)nc12 [BMS-536924]
Description: as §1

A-770041 = compound: COc1cc(-c2nn([C@H]3CC[C@H](N4CCN(C(C)=O)CC4)CC3)c3ncnc(N)c23)ccc1NC(=O)c1cc2ccccc2n1C [A-770041]; settings: top dose 5.12 µM; top dose inferred
Description: as §1

SB-525334 = compound: Cc1cccc(-c2[nH]c(C(C)(C)C)nc2-c2ccc3nccnc3c2)n1 [SB-525334]; settings: top dose 20 µM; top dose inferred
Description: as §1

Wee1 inhibitor 681640 = compound: O=C1NC(=O)c2c1c(-c1ccccc1Cl)cc1[nH]c3ccc(O)cc3c21 [Wee1 inhibitor 681640]; settings: top dose 2 µM; top dose inferred
Description: as §1

[1] = top dose 5 µM, screen: GDSC drug entry 1017, top dose inferred
[2] = top dose 10 µM, screen: GDSC drug entry 1495
[3] = top dose 4 µM, screen: GDSC drug entry 1091, top dose inferred
[4] = top dose 5.12 µM, screen: GDSC drug entry 62

RL95-2 (endometrium, adherent)
AUC (Shikonin): 0.467 | IC50 (Shikonin): 0.811 µM | AUC (CGP-082996 (CINK4)): 0.823 | IC50 (CGP-082996 (CINK4)): 2.98 µM | AUC (VX-702): 0.986 | IC50 (VX-702): > 2 µM | AUC (Olaparib; [1]): 0.969 | IC50 (Olaparib; [1]): > 5 µM | AUC (Olaparib; [2]): 0.947 | IC50 (Olaparib; [2]): > 10 µM | AUC (XMD8-85): 0.886 | IC50 (XMD8-85): > 8 µM | AUC (BMS-536924; [3]): 0.907 | IC50 (BMS-536924; [3]): > 4 µM | AUC (BMS-536924; [4]): 0.653 | IC50 (BMS-536924; [4]): 0.845 µM | AUC (A-770041): 0.552 | IC50 (A-770041): 0.442 µM | AUC (SB-525334): 0.987 | IC50 (SB-525334): > 20 µM

RPMI-8226 (myeloma, suspension)
AUC (Shikonin): 0.427 | IC50 (Shikonin): 0.65 µM | AUC (CGP-082996 (CINK4)): 0.839 | IC50 (CGP-082996 (CINK4)): 2.85 µM | AUC (Wee1 inhibitor 681640): 0.975 | IC50 (Wee1 inhibitor 681640): > 2 µM | AUC (VX-702): 0.909 | IC50 (VX-702): > 2 µM | AUC (Olaparib; [1]): 0.942 | IC50 (Olaparib; [1]): > 5 µM | AUC (Olaparib; [2]): 0.976 | IC50 (Olaparib; [2]): > 10 µM | AUC (XMD8-85): 0.911 | IC50 (XMD8-85): > 8 µM | AUC (BMS-536924; [3]): 0.889 | IC50 (BMS-536924; [3]): 3.51 µM | AUC (BMS-536924; [4]): 0.92 | IC50 (BMS-536924; [4]): > 5.12 µM | AUC (A-770041): 0.966 | IC50 (A-770041): > 5.12 µM | AUC (SB-525334): 0.979 | IC50 (SB-525334): > 20 µM

SCC-3 (B-cell lymphoma, suspension)
AUC (Shikonin): 0.334 | IC50 (Shikonin): 0.397 µM | AUC (CGP-082996 (CINK4)): 0.928 | IC50 (CGP-082996 (CINK4)): 4.16 µM | AUC (XMD8-85): 0.938 | IC50 (XMD8-85): 7.11 µM | AUC (BMS-536924; [4]): 0.874 | IC50 (BMS-536924; [4]): 2.76 µM | AUC (A-770041): 0.992 | IC50 (A-770041): > 5.12 µM | AUC (SB-525334): 0.994 | IC50 (SB-525334): > 20 µM

SIG-M5 (acute myeloid leukaemia, suspension)
AUC (Shikonin): 0.212 | IC50 (Shikonin): 0.192 µM | AUC (CGP-082996 (CINK4)): 0.92 | IC50 (CGP-082996 (CINK4)): 4.33 µM | AUC (XMD8-85): 0.75 | IC50 (XMD8-85): 2.08 µM | AUC (BMS-536924; [4]): 0.502 | AUC (A-770041): 0.871 | IC50 (A-770041): 2.9 µM | AUC (SB-525334): 0.84 | IC50 (SB-525334): 9.09 µM

SU-DHL-1 (anaplastic large cell lymphoma, suspension)
AUC (Shikonin): 0.471 | IC50 (Shikonin): 0.854 µM | AUC (CGP-082996 (CINK4)): 0.993 | IC50 (CGP-082996 (CINK4)): > 5.12 µM | AUC (XMD8-85): 0.982 | IC50 (XMD8-85): > 8 µM | AUC (BMS-536924; [4]): 0.77 | IC50 (BMS-536924; [4]): 1.45 µM | AUC (A-770041): 0.995 | IC50 (A-770041): > 5.12 µM | AUC (SB-525334): 0.946 | IC50 (SB-525334): 18.9 µM

TALL-1 (T-cell lymphoblastic leukaemia, suspension)
AUC (Shikonin): 0.842 | IC50 (Shikonin): 10.4 µM | AUC (CGP-082996 (CINK4)): 0.944 | IC50 (CGP-082996 (CINK4)): > 5.12 µM | AUC (XMD8-85): 0.944 | IC50 (XMD8-85): > 8 µM | AUC (BMS-536924; [4]): 0.879 | IC50 (BMS-536924; [4]): 4.84 µM | AUC (A-770041): 0.849 | IC50 (A-770041): 3.56 µM | AUC (SB-525334): 0.965 | IC50 (SB-525334): > 20 µM

TE-441-T (rhabdomyosarcoma, adherent)
AUC (Shikonin): 0.155 | IC50 (Shikonin): 0.0917 µM | AUC (CGP-082996 (CINK4)): 0.986 | IC50 (CGP-082996 (CINK4)): > 5.12 µM | AUC (XMD8-85): 0.963 | IC50 (XMD8-85): > 8 µM | AUC (BMS-536924; [4]): 0.989 | IC50 (BMS-536924; [4]): > 5.12 µM | AUC (A-770041): 0.883 | IC50 (A-770041): 5.1 µM | AUC (SB-525334): 0.795 | IC50 (SB-525334): 8.9 µM

THP-1 (acute myeloid leukaemia, suspension)
AUC (Shikonin): 0.496 | IC50 (Shikonin): 0.978 µM | AUC (CGP-082996 (CINK4)): 0.985 | IC50 (CGP-082996 (CINK4)): > 5.12 µM | AUC (Wee1 inhibitor 681640): 0.99 | IC50 (Wee1 inhibitor 681640): > 2 µM | AUC (VX-702): 0.991 | IC50 (VX-702): > 2 µM | AUC (XMD8-85): 0.951 | IC50 (XMD8-85): > 8 µM | AUC (BMS-536924; [3]): 0.969 | IC50 (BMS-536924; [3]): > 4 µM | AUC (BMS-536924; [4]): 0.969 | IC50 (BMS-536924; [4]): > 5.12 µM | AUC (A-770041): 0.989 | IC50 (A-770041): > 5.12 µM | AUC (SB-525334): 0.967 | IC50 (SB-525334): > 20 µM
